“And” between values parts separate entries of the source, which are not always exact repeats. Equal entries are not always repeated. Out of some 72,000 compounds screened, about 710 (0.99%) were called active. Inconclusive means that the source gave no clear call. Such entries were picked first, then a sample of the others. Calls come from the whole dose curve; as a rule, active = well fitted inhibition curve with a large enough effect; inconclusive = small, poorly fitted or top-dose-only effect; inactive = no such curve, though single readings can be large or run the other way. Potencies of inconclusive entries are left out as doubtful fits.
assay: qHTS Assay for Inhibitors of the ERK Signaling Pathway using a Homogeneous Screening Assay; details: HEK293-V1b, vasopressin-stimulated pERK AlphaScreen; activity, negative = inhibition: at 57.5 µM (top of the series) unless noted; note: nearly all actives have a fitted effect of over 55% in size
Method in brief: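 V1b-HEK293 cells; cpd 30 min 37C; 25 nM vasopressin 5 min; lyse 10 min; AlphaScreen beads 5 hr RT. Normalized to DMSO basal and 25 nM vasopressin; AC50 by Hill fit.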
% is set by controls: 0 for no effect and ±100 for the full control effect; potency is the fitted concentration of half-maximal effect; tags give direction and shape of the fitted curve.

| Compound | Potency | activity, negative = inhibition |
| --- | --- | --- |
| COC(=O)[C@@]1(Cc2ccc(OC)cc2)[C@H]2c3cc(C(=O)N4CCCC4)n(CCc4ccc(O)c(O)c4)c3C[C@H]2CN1C(=O)c1ccccc1 | inactive | – |
| C=CC[C@@H]1C=C[C@@H](O/N=C(/C)CCC(=O)OC[C@@H]2O[C@H](c3ccccc3)C=C[C@@H]2Oc2ccc(OC)cc2)[C@@H](CO)O1 | – | inactive: 15.7% [at 11.5 µM] |
| CCOC(=O)C(C)Sc1ncnc2nc[nH]c12 (stereo not drawn) | inactive | – |
| O=C(c1ccncc1)N1CCC[C@@]2(CCN(Cc3ccncc3)C2)C1 | inactive | – |
| COC(=O)C1=C(N)Oc2cc(C)n(CCN3CCOCC3)c(=O)c2C1c1cccnc1 (stereo not drawn) | inactive | – |
| CC(C)(C)c1ccc(/C=C/C(=O)Nc2ccc3c(c2)OCCO3)cc1 | inconclusive [inhibitor, partial curve] | – |
| O=C(CCn1ccc2ccccc21)Nc1ccc(N2CCOCC2)cc1 | inconclusive [inhibitor, partial curve, poor fit] | – |
| COc1ccccc1OCC(=O)c1[nH]c(C)c(C(C)=O)c1C | inconclusive [inhibitor, single point] | – |
| O=c1c(-c2cc(F)cc(F)c2)nc2cnc(N3CCOCC3)nc2n1Cc1cccs1 | inactive | – |
| Cc1c(C(=O)OCCOC(C)C)[nH]c2c1C(=O)CC(c1ccco1)C2 (stereo not drawn) | inconclusive [inhibitor, single point] | – |
| CC(C)[C@H](NC(=O)OC(C)(C)C)c1nnc(SCC(=O)Nc2ccc(Br)cc2)o1 | inconclusive [inhibitor, partial curve] | – |
| CN(C)c1ccc(NC(=O)Cn2ncn3c(cc4ccccc43)c2=O)cc1 | inactive | – |
| CCCCn1c(=O)[nH]c(=O)c2c1nc(CN1C(=O)c3ccccc3S1(=O)=O)n2CCC | inactive | – |
| c1ccc(-c2cccc(-c3ccccn3)n2)nc1 | inconclusive [inhibitor, single point] | – |
| COC(=O)C/C=C\[C@@H](C)[C@@H](/C=N\OC[C@@H](O)[C@H]1O[C@H]2OC(C)(C)O[C@H]2[C@@H]1O)NS(=O)(=O)c1ccc(C)cc1 | – | inactive: 6.73% [at 11.5 µM] |
| Nc1c(C(=O)OCC2CCCO2)c2nc3ccccc3nc2n1C1CCCC1 (stereo not drawn) | inconclusive [inhibitor, partial curve] | – |
| O=C(Cn1c(=O)c2c(ncn2Cc2ccccc2)n(Cc2ccccc2)c1=O)N1CCCC1 | inconclusive [inhibitor, single point] | – |
| CCOc1cc(C#N)c(NC(=O)c2ccco2)cc1OCC | inconclusive [inhibitor, partial curve] | – |
| COc1ccc(Br)cc1CNC(=O)C1CCN(S(=O)(=O)N2CCCCC2)CC1 | inactive | – |
| Cc1nc(N2CCOCC2)c2cc(-c3ccccc3)sc2n1 | active: 15.8 µM | – |
| CCOC(=O)c1c2n(c3ccc(O)cc13)CCC2 | inconclusive [inhibitor, partial curve, poor fit] | – |
| COc1ccc(-c2nn(C)c(=O)c3ccccc23)cc1NC(=O)Cn1nc(C)c2ccccc2c1=O | inconclusive [inhibitor, partial curve] | – |

| Compound | Potency | activity, negative = inhibition |
| --- | --- | --- |
| CCOCc1nc(C)c(Cl)c(NS(=O)(=O)c2ccc(N)cc2)n1 | inconclusive [inhibitor, full curve, poor fit] | – |
| COc1ccc(CNc2ncnc3ccc(-c4ccc(C(=O)N(C)C)cc4)cc23)c(OC)c1 | inconclusive [inhibitor, partial curve] | – |
| CCN1CCN(C(=O)C2CCN(C(=O)c3cc4sccc4n3CC)CC2)CC1 | inactive | – |
| CCOC(=O)c1cc(C)sc1N1C(=O)C2C3C=CC(C3)C2C1=O (stereo not drawn) | inactive | – |
| COc1ccc(Cl)cc1-c1nc(-c2ccncc2)no1 | inactive | – |
| Fc1cccc(Cl)c1CSc1nnc(COc2cccc3cccnc23)o1 | inconclusive [inhibitor, single point] | – |
| COc1ccccc1-c1nc(N(C)Cc2ccco2)c2ccccc2n1 | inactive | – |
| COc1cccc(C2C(C(=O)c3cc4ccccc4o3)=C(O)C(=O)N2c2cc(C)on2)c1OC (stereo not drawn) | inconclusive [inhibitor, partial curve, poor fit] | – |
| CC(=O)OCCNC(=O)Cn1cnc2c1c(=O)n(C)c(=O)n2C | inconclusive [inhibitor, single point] | – |
| Cc1cc(Nc2ccccc2)n(-c2ccccc2)n1 | inconclusive [inhibitor, partial curve, poor fit] | – |
| O=C(CSc1nnc(Cc2cccs2)n1Cc1ccco1)Nc1ccc(Cl)cc1Cl | inconclusive [inhibitor, single point] | – |
| COc1ccc(NC(=O)c2ccccc2NC(=O)c2ccco2)c(OC)c1 | inconclusive [inhibitor, full curve] | – |
| CC1CC=C2C(C#N)=C(N)C(C#N)(C#N)C(c3cccs3)C2C1 (stereo not drawn) | inactive | – |
| CCOC(=O)N1CCC(NC(=O)c2cnn3c2NC(c2ccco2)CC3C(F)(F)F)CC1 (stereo not drawn) | inconclusive [inhibitor, partial curve] | – |
| O=C(C1=C(O)C(=O)N(c2ncccn2)C1c1cccs1)c1ccco1 (stereo not drawn) | inconclusive [inhibitor, single point] | – |
| COc1ccc(CNc2cc(-c3cccc(NS(C)(=O)=O)c3)ncn2)c(OC)c1 | inconclusive [inhibitor, single point] | – |
| CCOc1cc(CNc2ccc3[nH]c(=O)[nH]c3c2)ccc1OCC(=O)NC(C)(C)C | inactive | – |
| COc1ccccc1N1CCN(C(=O)CCc2ccc(S(=O)(=O)NCC(C)C)cc2)CC1 | active: 25.1 µM | – |
| OC[C@@H]1O[C@@H](n2cnc3c(N[C@@H]4C[C@@H]5CC[C@H]4C5)ncnc32)[C@@H](O)[C@H]1O | inactive | – |
| CN1CCc2c(sc3c2C(=O)NC(/C=C/c2ccco2)N3)C1 (stereo not drawn) | active: 15.8 µM | – |
| CCCCCCC1Cc2cc(OC)c(OC)cc2C(C(C(=O)OCC)C(=O)OCC)O1 (stereo not drawn) | – | inactive: 28.1% [at 11.5 µM] and inactive: 36.3% [at 11.5 µM] |

Source: PubChem BioAssay AID995 (National Center for Advancing Translational Sciences (NCATS), 2007)
